# From paper PMC4081100
# The entries are a selection whose mix differs from that of the whole data set. For some assays here: At the low end of the ranking the order means little. The list shows a part of the results. For some assays here: Construct or isoform of the protein are uncertain.
# Assays:
# Test in all cases: universal protein binding microarray (PBM)
# Details in all cases: transcription factors of Arabidopsis thaliana; high values mean tight binding; most listed sequences are background and not binding sites; double strand, one strand shown
# GST-ANAC092(1-176) = target: T1, GST-ANAC092(1-176) (UniProt Q9FKA0)
# T1 sequence: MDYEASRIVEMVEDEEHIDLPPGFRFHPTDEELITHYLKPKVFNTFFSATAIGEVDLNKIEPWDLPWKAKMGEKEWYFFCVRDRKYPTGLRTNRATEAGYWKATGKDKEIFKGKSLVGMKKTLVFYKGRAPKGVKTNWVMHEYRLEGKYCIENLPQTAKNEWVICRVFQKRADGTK
# GST-NTL6(1-168) = GST-NTL6(1-168) (UniProt Q9SCK6)
# GST-NAP(1-166) = target: T2, GST-NAP(1-166) (UniProt O49255)
# T2 sequence: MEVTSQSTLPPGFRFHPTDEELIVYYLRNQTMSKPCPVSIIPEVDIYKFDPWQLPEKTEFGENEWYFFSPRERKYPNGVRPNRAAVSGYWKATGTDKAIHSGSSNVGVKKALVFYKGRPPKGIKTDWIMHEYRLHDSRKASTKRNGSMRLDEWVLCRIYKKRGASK
# GST-NST2(1-184) = target: T3, GST-NST2(1-184) (UniProt Q9M274)
# T3 sequence: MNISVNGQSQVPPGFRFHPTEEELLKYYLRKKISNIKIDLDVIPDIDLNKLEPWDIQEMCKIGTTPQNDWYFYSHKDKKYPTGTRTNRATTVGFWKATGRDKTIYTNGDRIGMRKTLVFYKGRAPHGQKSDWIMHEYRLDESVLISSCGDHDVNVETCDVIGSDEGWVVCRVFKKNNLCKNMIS
# GST-NTL8 NAC domain = target: T4, GST-NTL8 NAC domain (UniProt Q9XIN7)
# T4 sequence: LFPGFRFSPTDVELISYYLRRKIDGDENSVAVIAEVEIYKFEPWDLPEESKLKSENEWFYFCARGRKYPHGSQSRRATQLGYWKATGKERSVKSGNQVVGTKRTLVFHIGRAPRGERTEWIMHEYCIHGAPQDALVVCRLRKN
# [1] = target: T5, GST-VOZ2 (Arabidopsis thaliana) (UniProt Q9SLB9)
# T5 sequence: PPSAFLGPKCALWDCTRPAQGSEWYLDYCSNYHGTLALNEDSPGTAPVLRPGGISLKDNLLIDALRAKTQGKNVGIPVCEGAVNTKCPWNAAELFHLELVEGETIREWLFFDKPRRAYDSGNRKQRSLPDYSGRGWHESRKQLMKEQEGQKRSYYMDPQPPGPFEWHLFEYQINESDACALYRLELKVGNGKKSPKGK
# GST-WRKY1(266-371) = GST-WRKY1(266-371) (UniProt Q9SI37)
# GST-ANAC019 NAC domain = target: T6, GST-ANAC019 NAC domain (UniProt Q9C932)
# T6 sequence: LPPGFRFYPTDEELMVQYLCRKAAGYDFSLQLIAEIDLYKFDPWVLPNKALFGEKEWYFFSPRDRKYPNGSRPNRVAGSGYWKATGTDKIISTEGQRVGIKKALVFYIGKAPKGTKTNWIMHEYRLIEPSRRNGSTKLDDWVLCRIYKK
# GST-ATAF1 NAC domain = target: T7, GST-ATAF1 NAC domain (UniProt Q39013)
# T7 sequence: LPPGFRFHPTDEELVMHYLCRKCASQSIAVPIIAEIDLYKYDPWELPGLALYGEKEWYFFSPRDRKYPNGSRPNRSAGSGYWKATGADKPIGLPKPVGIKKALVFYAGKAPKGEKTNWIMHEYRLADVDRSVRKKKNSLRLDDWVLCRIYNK
# GST-ANAC055(1-171) = target: T8, GST-ANAC055(1-171) (UniProt Q9LDY8)
# T8 sequence: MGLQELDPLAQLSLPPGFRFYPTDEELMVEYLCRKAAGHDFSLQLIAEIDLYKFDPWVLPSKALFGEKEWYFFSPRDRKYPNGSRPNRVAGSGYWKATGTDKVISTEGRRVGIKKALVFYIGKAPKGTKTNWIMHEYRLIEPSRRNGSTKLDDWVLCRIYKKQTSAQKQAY
# [2] = target: T9, GST-ANAC092(1-285) full length (UniProt Q9FKA0)
# T9 sequence: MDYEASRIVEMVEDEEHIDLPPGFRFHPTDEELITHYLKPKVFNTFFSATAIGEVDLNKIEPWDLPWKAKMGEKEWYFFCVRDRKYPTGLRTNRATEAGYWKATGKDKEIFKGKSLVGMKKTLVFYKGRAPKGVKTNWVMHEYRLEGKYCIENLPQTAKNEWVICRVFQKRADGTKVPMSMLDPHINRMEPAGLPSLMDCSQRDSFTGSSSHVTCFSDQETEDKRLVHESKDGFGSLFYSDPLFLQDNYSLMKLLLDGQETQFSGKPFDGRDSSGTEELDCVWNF
Sequence,binding signal (GST-ANAC092(1-176)) [E-score],binding signal (GST-NTL6(1-168)) [E-score],binding signal (GST-NAP(1-166)) [E-score],binding signal (GST-NST2(1-184)) [E-score],binding signal (GST-NTL8 NAC domain) [E-score],binding signal [1] [E-score],binding signal (GST-WRKY1(266-371)) [E-score],binding signal (GST-ANAC019 NAC domain) [E-score],binding signal (GST-ATAF1 NAC domain) [E-score],binding signal (GST-ANAC055(1-171)) [E-score],binding signal [2] [E-score]
CACGGCAG,0.39,-0.0946,0.227,0.0722,0.0421,-0.0116,-0.0404,–,–,–,–
AGATTGAC,0.135,–,-0.0172,–,-0.0806,0.0393,0.457,-0.158,0.0846,–,–
ATGACGTA,0.443,0.0683,–,–,–,-0.052,0.0111,–,0.374,–,–
CAAGCAAC,0.426,0.239,-0.0691,–,–,-0.041,-0.0146,0.1,0.0251,–,–
TCACGTAA,0.443,0.0398,0.405,–,–,0.124,0.0388,0.47,–,–,–
ATTGCGTG,–,0.0376,–,–,–,0.143,0.0947,–,–,–,–
AATACTTA,-0.0424,–,-0.0246,–,0.0845,0.0468,-0.123,–,–,0.162,–
AATTCCGT,0.274,–,–,0.179,–,0.0504,-0.0534,0.456,0.358,–,–
CACGTTAA,0.429,–,0.129,0.301,-0.04,0.119,-0.119,0.125,–,–,–
CTACGCAA,–,-0.0569,–,–,–,0.146,0.0118,–,–,–,–
AAACACGC,0.415,-0.00187,–,–,-0.00318,0.155,-0.04,0.261,0.233,0.262,–
GTAACTTA,0.271,0.375,0.133,0.306,–,0.139,-0.0548,0.03,0.233,–,–
CGTACACG,–,-0.0348,0.288,0.0623,-0.0615,-0.0519,0.0423,0.221,–,–,–
ACGCAACG,–,-0.0424,–,0.3,–,0.137,0.02,–,0.27,–,0.463
ACACGTAA,–,0.0392,–,0.316,0.017,-0.00517,-0.0409,–,0.439,–,0.481
CACGCCAA,–,-0.0669,–,–,0.0657,0.138,-0.0898,0.185,0.16,–,0.451
ACACGGCA,–,-0.0852,–,0.245,–,-0.0784,-0.0389,0.485,0.446,–,–
ACGCATCC,–,0.0213,–,–,-0.0634,0.166,-0.0288,–,0.195,–,–
CGTCAACG,–,-0.145,–,-0.036,-0.227,-0.0599,0.47,–,–,0.0304,–
CACGTTTC,–,0.107,–,–,0.217,0.0736,-0.0638,–,–,0.375,–
GCAAGCAA,–,0.26,-0.028,0.28,0.0916,-0.0433,-0.202,–,-0.0645,0.0669,0.42
ACACTCAA,–,0.0392,0.07,–,–,0.113,0.133,0.116,–,–,–

Sequence,binding signal (GST-ANAC092(1-176)) [E-score],binding signal (GST-NTL6(1-168)) [E-score],binding signal (GST-NAP(1-166)) [E-score],binding signal (GST-NST2(1-184)) [E-score],binding signal (GST-NTL8 NAC domain) [E-score],binding signal [1] [E-score],binding signal (GST-WRKY1(266-371)) [E-score],binding signal (GST-ANAC019 NAC domain) [E-score],binding signal (GST-ATAF1 NAC domain) [E-score],binding signal (GST-ANAC055(1-171)) [E-score],binding signal [2] [E-score]
GCGTGTAC,–,-0.101,0.261,–,-0.0891,0.0547,-0.0659,0.19,–,–,–
GTACGGAA,–,0.0481,–,0.138,0.00277,0.102,-0.00172,–,0.369,–,0.376
TGCGTAAA,–,0.0301,–,0.291,0.0652,0.261,-0.0164,0.205,–,0.131,–
CTAAGCAA,–,0.461,-0.051,–,0.254,0.0371,-0.0224,–,-0.0209,-0.023,–
AAGTAAAG,–,0.432,0.0549,–,0.27,0.0765,0.000705,–,–,0.168,–
AAATTGAC,–,0.156,0.136,–,0.0641,0.154,0.45,0.134,0.228,–,–
GACACGCA,–,-0.103,0.283,–,0.0711,0.0798,0.0431,–,0.304,–,–
AATACGCA,–,0.109,–,–,-0.053,0.0896,0.00445,–,–,0.293,–
AGGGAAAA,–,0.201,0.117,-0.00265,0.416,0.0746,-0.0385,–,0.187,0.111,0.0865
CACGCCAC,–,-0.0816,–,–,0.00013,0.152,0.026,–,–,0.268,0.488
TGCCGTAA,–,0.114,–,0.328,–,0.0353,-0.14,–,0.436,–,–
GTAGCGTA,–,0.111,0.27,0.381,0.0358,0.288,-0.0235,0.0436,–,–,–
GCGTGTTA,–,0.0115,–,–,0.0415,0.121,-0.107,–,–,0.174,–
ACACGCCA,–,-0.075,–,0.313,-0.0683,0.0833,-0.143,–,0.227,–,–
ACGGCAAT,–,0.0399,0.236,–,–,0.0117,-0.0412,0.409,–,–,–
CACGTAAC,–,0.047,–,–,0.242,0.0797,-0.125,0.479,0.436,–,–
AAGGAAAT,–,0.384,0.06,–,0.466,0.11,-0.0335,0.147,–,–,0.163
CACGTCAC,–,-0.0881,–,–,-0.109,0.0211,0.0034,–,0.374,0.396,–
ATGGCGTG,–,-0.105,0.161,–,-0.0386,0.0701,-0.154,–,–,0.138,–
GTTAAGCA,–,0.408,-0.127,–,0.0417,0.0263,-0.0552,0.0907,–,–,–
ACGCAAGT,–,0.121,–,–,0.0671,0.0846,0.0386,0.277,–,–,–
GCACGCTA,–,-0.0984,0.0433,–,-0.0548,-0.0751,-0.101,–,0.0329,–,–
